The target in experiment [1] is T1, human Hsp90β (human, UniProt P08238). Description: SPR.
For experiment [2], the target named is T1, human Hsp90β. The experiment is described as follows: SPR. This is another data set of the same source. On the technique in general: Surface plasmon resonance follows binding to a sensor surface in real time, without labels.

Usually Kd stands for the free concentration of one partner at which half of the binding sites on the other are occupied at equilibrium, for simple one-to-one binding. Read a low Kd as a tighter complex.

T1 sequence (P08238 whole entry): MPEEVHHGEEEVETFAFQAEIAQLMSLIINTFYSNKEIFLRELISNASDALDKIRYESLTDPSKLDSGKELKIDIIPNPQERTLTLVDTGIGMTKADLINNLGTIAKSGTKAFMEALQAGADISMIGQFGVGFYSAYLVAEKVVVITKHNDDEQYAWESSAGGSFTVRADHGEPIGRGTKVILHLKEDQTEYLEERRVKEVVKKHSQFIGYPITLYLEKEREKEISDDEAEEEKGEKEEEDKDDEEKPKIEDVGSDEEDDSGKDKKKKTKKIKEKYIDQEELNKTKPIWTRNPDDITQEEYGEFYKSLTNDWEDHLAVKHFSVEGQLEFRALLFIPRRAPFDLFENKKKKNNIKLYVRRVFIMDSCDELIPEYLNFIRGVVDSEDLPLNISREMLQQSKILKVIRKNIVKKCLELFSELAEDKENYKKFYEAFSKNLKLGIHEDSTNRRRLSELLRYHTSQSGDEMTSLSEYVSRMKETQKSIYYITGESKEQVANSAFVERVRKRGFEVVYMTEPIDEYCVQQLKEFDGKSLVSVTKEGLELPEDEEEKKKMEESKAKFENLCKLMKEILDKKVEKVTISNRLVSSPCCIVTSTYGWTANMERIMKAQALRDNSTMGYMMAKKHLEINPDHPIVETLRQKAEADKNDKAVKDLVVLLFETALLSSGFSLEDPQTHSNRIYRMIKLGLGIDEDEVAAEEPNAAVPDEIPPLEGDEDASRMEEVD

B1: Aha1 D293A (natural protein)
chain: not shown
The molecule B1 registered a Kd in experiment [1] of 440 nM.

B2: Aha1 E67K (natural protein)
chain: not shown
On to B2, for which the “fold slower association rate than WT” value in experiment [2] was no less than 15 fold.

B3: Aha1 E221A (natural protein)
chain: not shown
Molecule B3 registered a Kd in experiment [1] of 890 nM.

The record behind these values is PMC2836968 (Molecular Biology of the Cell, 2010).
